The GPR68 mutational scans of Howard et al. (2025)
The least precise scores are not listed. Two further conditions of the source, in which the scores hardly spread, are not listed. Names with del lack the residues named; names with ins carry added residues between the positions named. For some of these results: The data file names ogerin without a concentration.

B1: GPR68, Q15743 (parent)
chain: MGNITADNSSMSCTIDHTIHQTLAPVVYVTVLVVGFPANCLSLYFGYLQIKARNELGVYLCNLTVADLFYICSLPFWLQYVLQHDNWSHGDLSCQVCGILLYENIYISVGFLCCISVDRYLAVAHPFRFHQFRTLKAAVGVSVVIWAKELLTSIYFLMHEEVIEDENQHRVCFEHYPIQAWQRAINYYRFLVGFLFPICLLLASYQGILRAVRRSHGTQKSRKDQIQRLVLSTVVIFLACFLPYHVLLLVRSVWEASCDFAKGVFNAYHFSLLLTSFNCVADPVLYCFVSETTHRDLARLRGACLAFLTCSRTGRAREAYPLGAPEASGKSGAQGEEPELLTKLHPAFQTPNSPGSGGFPTGRLA

Tests used:
[1] = variants of: B1; experiment: cAMP reporter score (Enrich2 score, wild type = 0); higher = more signal; HEK293T, FACS bins
[2] = variants of: B1; experiment: surface expression score (Enrich2 score, wild type = 0); higher = more signal; HEK293T, FACS bins

Variant	cAMP reporter score ([1]; pH 5.5)	cAMP reporter score ([1]; pH 6)	cAMP reporter score ([1]; pH 6, modulator: ogerin)	cAMP reporter score ([1]; pH 6.5, modulator: ogerin)	surface expression score [2]
MGNITADNSSMSCTIDHCIHQTLAPVVYVTVLVVGFPANCLSLYFGYLQIKARNELGVYLCNLTVADLFYICSLPFWLQYVLQHDNWSHGDLSCQVCGILLYENIYISVGFLCCISVDRYLAVAHPFRFHQFRTLKAAVGVSVVIWAKELLTSIYFLMHEEVIEDENQHRVCFEHYPIQAWQRAINYYRFLVGFLFPICLLLASYQGILRAVRRSHGTQKSRKDQIQRLVLSTVVIFLACFLPYHVLLLVRSVWEASCDFAKGVFNAYHFSLLLTSFNCVADPVLYCFVSETTHRDLARLRGACLAFLTCSRTGRAREAYPLGAPEASGKSGAQGEEPELLTKLHPAFQTPNSPGSGGFPTGRLA [T18C]	-0.644	-0.994	-0.957	-1.31	-1.61
MGNITADNSSMSCTIDHAIHQTLAPVVYVTVLVVGFPANCLSLYFGYLQIKARNELGVYLCNLTVADLFYICSLPFWLQYVLQHDNWSHGDLSCQVCGILLYENIYISVGFLCCISVDRYLAVAHPFRFHQFRTLKAAVGVSVVIWAKELLTSIYFLMHEEVIEDENQHRVCFEHYPIQAWQRAINYYRFLVGFLFPICLLLASYQGILRAVRRSHGTQKSRKDQIQRLVLSTVVIFLACFLPYHVLLLVRSVWEASCDFAKGVFNAYHFSLLLTSFNCVADPVLYCFVSETTHRDLARLRGACLAFLTCSRTGRAREAYPLGAPEASGKSGAQGEEPELLTKLHPAFQTPNSPGSGGFPTGRLA [T18A]	0.789	0.794	0.714	1.16	0.685
H17_T18insG	-0.249	-0.499	-0.547	-0.495	0.36
H17_T18del	-1.05	-1.13	-2.46	-1.26	-0.229
D16del	-1.21	-0.441	-1.52	-1.04	-0.388
